# Assay results taken from the supplement of paper PMC3334620.
# In all, about 33,000 sequences were measured (“E-score (-0.5 to 0.5)”: median about -0.035, highest 2% from about 0.34 on). The list shows a part of the results.
# Biological target: T1, Mot3 (UniProt P54785)
# T1 sequence: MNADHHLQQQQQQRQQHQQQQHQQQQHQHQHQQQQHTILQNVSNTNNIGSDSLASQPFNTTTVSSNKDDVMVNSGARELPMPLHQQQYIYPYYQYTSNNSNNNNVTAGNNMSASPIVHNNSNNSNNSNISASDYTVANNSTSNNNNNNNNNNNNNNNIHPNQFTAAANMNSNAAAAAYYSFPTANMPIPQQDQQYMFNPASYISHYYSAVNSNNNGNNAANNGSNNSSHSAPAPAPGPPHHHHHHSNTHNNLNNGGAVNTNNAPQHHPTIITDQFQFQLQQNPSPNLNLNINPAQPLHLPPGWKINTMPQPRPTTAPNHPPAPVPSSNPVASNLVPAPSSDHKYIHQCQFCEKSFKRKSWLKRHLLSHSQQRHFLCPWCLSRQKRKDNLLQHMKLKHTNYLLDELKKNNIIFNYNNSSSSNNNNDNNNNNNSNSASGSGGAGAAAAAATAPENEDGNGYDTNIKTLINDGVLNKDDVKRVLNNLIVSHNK
# Experiment: PBM E-score (8-mer binding enrichment) (E-score (-0.5 to 0.5)); higher = stronger / more preferred TF binding; most listed sequences are background and not binding sites
# Conditions: protein concentration: 200 nM; construct: GST-full length
# Outline: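 Yeast transcription factors carrying a GST tag, as full-length proteins or DNA-binding domains, were produced by PURExpress in vitro transcription/translation. About 100-200 nM protein was applied to universal all-10-mer Agilent arrays, double-stranded by primer extension on fresh or once-stripped slides. Bound protein was detected with fluorescent anti-GST, and scans were normalised with masliner. The Universal PBM Analysis Suite gave each ungapped eight-base word, pooled with its reverse complement, an E-score, a modified Wilcoxon-Mann-Whitney statistic.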
row,Sequence,PBM E-score
1,ACCAAAGT,-0.141
2,CACTTTAA,0.0788
3,CGTGTACA,0.388
4,CACTGCAG,-0.136
5,CTAATTTA,0.119
6,CCTAGACG,-0.149
7,ATGGCGTG,0.204
8,AGATTCGC,-0.176
9,ATACCACG,-0.014
10,CTATTCTA,0.0184
11,GCCGTCAC,-0.236
12,AGAATATG,0.0812
13,CGGGTGAC,-0.04
14,GCGACGCC,-0.187
15,CAGTAGAA,-0.107
16,AACTTCCT,0.15
17,ACTGGGGG,-0.293
18,AATTGCGG,0.0419
19,ATAAAGCC,-0.142
20,GTTCGAGA,0.0877
21,CACAAGGA,0.191
22,GTAGTAAC,0.121
23,CCCTATAG,-0.0649
24,AACGCCGC,-0.035
25,CTTACAAC,0.306

row,Sequence,PBM E-score
1,CTGAGCAG,0.00862
2,GATCCAAC,-0.131
3,CGTTTACC,0.0878
4,ACATACAC,0.332
5,AGGTATCC,0.174
6,GATAACAC,0.318
7,CAAGAATG,-0.0228
8,AATTCCCG,0.0119
9,CAGAACTC,-0.228
10,AATGATGG,0.0932
11,AGGGACTA,-0.204
12,ATGGTGAC,-0.224
13,CGATAGGC,0.232
14,CTTCATCA,-0.138
15,ATCAGGGC,-0.15
16,CGTGAAAA,0.141
17,CCCGGAGA,-0.143
18,GCTGACGA,-0.103
19,GCGTGCGA,-0.138
20,GGAGGAAA,0.0847
21,GTGCTGCA,-0.193
22,CACACAAG,0.151
23,GCTTTCTA,0.164
24,CGTCGTTA,-0.0621
25,AACTAATT,0.0646

row,Sequence,PBM E-score
1,GGCTGTTA,0.109
2,GTAGAACA,0.186
3,GGCGACCA,-0.226
4,TATACATA,0.336
5,CGAAGCAC,0.0915
6,ACAGCACT,0.102
7,ACCTCGCC,-0.271
8,AAAACTGG,-0.0272
9,CAATGTTA,0.232
10,CGGGACAC,-0.149
11,TGGAGACA,-0.112
12,GTCGGACA,-0.0896
13,CACACATC,0.134
14,CAAGCAAA,0.0713
15,CCATCTGA,-0.177
16,TAAGCTTA,0.0829
17,TTCAAAAA,0.0649
18,ACTGCATG,0.186
19,TCAGTTAA,-0.00974
20,AATAGCCT,-0.143
21,ACAGCATG,0.123
22,CCAGTGTA,0.0502
23,GCTTTAGA,-0.0931
24,AGGATATA,0.0691
25,ACATCCGA,-0.0925

row,Sequence,PBM E-score
1,TAATGACA,0.164
2,ACACAATG,0.263
3,AAGACGCG,0.191
4,CAAGGGGC,-0.148
5,GAGGCACC,0.463
6,ACCTGTTG,0.206
7,CCGCTACG,-0.246
8,CGGTTCTC,-0.212
9,CCACGTCC,-0.368
10,GGCGTACA,0.167
11,ATATTCAC,-0.0205
12,ACGACTTC,-0.0985
13,CTGGGCAA,-0.192
14,CAATTTAA,0.145
15,ACTGGTAG,0.0595
16,CACTTATC,-0.0767
17,AAAATAGC,-0.204
18,CAGCCTCA,-0.197
19,ACTTTTTC,-0.0449
20,CGATCGCG,-0.102
21,CGTGTTGC,0.242
22,AGCAAACT,0.16
23,ACGGACAA,-0.0745
24,AGTAACTG,0.0377
25,ACAATCGG,-0.0755

row,Sequence,PBM E-score
1,GCATTGAC,-0.0204
2,CACAGGAA,0.385
3,CATCCATA,-0.183
4,CCTCCGCA,-0.0262
5,GGGTGTGA,-0.0424
6,GCTAGCAC,-0.186
7,TACCCATA,-0.173
8,GCACTCGC,-0.168
9,GCAGCGGA,-0.222
10,AAGTGACA,0.183
11,AGACAAAA,0.0854
12,ATGCTGGA,-0.0404
13,CACCGCAA,-0.0276
14,GCTCCTCC,-0.203
15,GAGCTTCC,-0.165
16,AATCTCAA,-0.0782
17,CCACCTCA,-0.247
18,ACTTAGCA,-0.0419
19,GGTGTTAC,0.164
20,AACACGAC,0.344
21,AACATGGA,0.312
22,GATGTGCC,0.302
23,GGGATAGA,-0.258
24,GACCTGGC,-0.201
25,CACAGTGG,-0.0147

row,Sequence,PBM E-score
1,GGACCGAC,-0.193
2,CAGAATTC,-0.156
3,AACCCACA,0.0686
4,CCCGATCA,-0.266
5,AAGAAGAC,-0.00584
6,CCCGACGC,-0.262
7,CGCAGACC,-0.317
8,ATCTTCTG,-0.0492
9,AGATAGCC,-0.145
10,CCGATAGC,-0.202
11,AGGAGTAT,-0.025
12,GGGATCAC,-0.239
13,CGGCCCTC,-0.317
14,AGTAACGG,-0.0844
15,CGCCACAA,-0.0437
16,ACTCCCCT,-0.3
17,GATCCTAC,0.046
18,CAAAGTGC,-0.0314
19,AAGGTACT,0.364
20,ACTATCAC,-0.0139
21,GGGGCCGA,-0.299
22,TAGATCCA,-0.152
23,CTGTGGCA,-0.125
24,CATAGTAA,0.275
25,CCTTTGAA,0.00045

row,Sequence,PBM E-score
1,ACGGGGGC,-0.202
2,CGTGATTC,-0.294
3,TCGCCACA,0.017
4,CCAACAGC,-0.0615
5,GAGGCGGA,-0.339
6,ATCTGGCG,-0.0356
7,ACTCGTAA,0.0814
8,CCTGTTAG,0.123
9,CATATATC,-0.0379
10,AAGTACCC,-0.0167
11,AGGTGTAA,0.26
12,ATCTCTGG,-0.146
13,CGCTGGTC,-0.275
14,ATCGCGAT,-0.106
15,TGGTGACA,-0.0574
16,CCAGACAG,-0.104
17,ACCCCAAG,-0.15
18,ATCGGACA,-0.0499
19,CGGAAGCA,0.0397
20,ATTGGCGG,-0.109
21,CCCGGTGC,-0.264
22,CCCTATAC,-0.173
